From paper PMC11061317 come the findings set out here.

These are yes or no findings as the source states them, for the method shown. For part of these data: Binding seen in cells or lysates may run through a third protein. Some results given as binding are weak or reduced against the parent protein; the word gives no strength.

Assay [1] addresses exogenously expressed Rheb (UniProt Q15382). The assay is described as follows: co-IP; exogenously expressed Rheb, with or without insulin; Supplementary Fig. S3a, b, not shown.
In assay [2] the target is SFB-tagged ATP6AP1 C-tail (30). The assay is described as follows: co-IP; lysates of HEK293T cells transiently co-expressing GST-tagged Rheb-G63V and SFB-tagged WT or mutant ATP6AP1; IP with anti-Flag antibody, immunoblot.
Assay [3] has as its target SFB-tagged ATP6AP1 SP-TM-C-tail (UniProt Q15904). The assay is described as above.
For assay [4], the target named is SFB-tagged ATP6AP1 (wild type, full length) (UniProt Q15904). The assay is described as follows: co-IP; HEK293T cells stably expressing SFB-tagged ATP6AP1 or GFP, serum starved, with or without insulin for 15 min; IP with anti-Flag antibody, immunoblot. A general note: A western blot detects proteins with antibodies after separation by electrophoresis.
Assay [5] concerns the target GST-tagged wild-type Rheb expressed in HEK293T (UniProt Q15382). The assay is described as follows: pull-down; HEK293T cells transiently co-expressing GST-tagged WT or mutant Rheb and SFB-tagged WT or mutant ATP6AP1; GST pull-down and western blot; GST-GFP as negative control.
Assay [6] deals with GST-tagged Rheb-G63A expressed in HEK293T (UniProt Q15382). Described as above.
In assay [7] the target is GST-tagged Rheb-G63V expressed in HEK293T (UniProt Q15382). The assay is described as above.
In assay [8] the target is biotinylated synthetic peptide of the ATP6AP1 C-tail (12) with the Q468G mutation (UniProt Q15904). The assay is described as follows: condition: 1 µg recombinant protein with peptide at a 1:5 molar ratio in 300 µL; pull-down; recombinant Rheb (1 ug) and biotinylated C-tail peptide at a 1:5 molar ratio in 300 uL NETN buffer (40 mM Tris-HCl, 100 mM NaCl, 0.5% NP-40, 1 mM EDTA, 10% glycerol) with 15 uL streptavidin beads, 2 h at 4 °C; SDS-PAGE and immunoblot; both purified.

In the case of “ATP6AP1 co-immunoprecipitated with exogenously expressed Rheb (from UniProt Q15904 42-470)”, the binding entry in assay [1] is on record as “binds”. In the case of “GST-tagged Rheb-G63V expressed in HEK293T (from UniProt Q15382 1-184)”, the binding result in assay [2] and in assay [3] was “binds” in each case. For “Rheb (endogenous, HEK293T) (from UniProt Q15382 1-184)”, the binding result in assay [4] is given as “binds”. For “SFB-tagged ATP6AP1 (wild type, full length) (from UniProt Q15904 42-470)”, the binding entry in assay [5], in assay [6] and in assay [7] was “binds” throughout.

Turning to “SFB-tagged ATP6AP1 with Q468 mutated (from UniProt Q15904 42-470)”, the binding result in assay [7] is “no binding”. In the case of “bacterially purified GST-tagged Rheb (from UniProt Q15382 1-184)”, the binding entry in assay [8] was “no binding”.
